The list shows a part of the results.
T1: UNK ZnF1-3 (human, UniProt Q9C0B0 31-174)
T1 sequence: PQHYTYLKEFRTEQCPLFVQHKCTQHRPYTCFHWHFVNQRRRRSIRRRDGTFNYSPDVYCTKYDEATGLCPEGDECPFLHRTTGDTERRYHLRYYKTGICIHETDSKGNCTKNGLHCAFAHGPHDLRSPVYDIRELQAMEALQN

B1: chr14:92597410:92597411:+_ENSG00000165934_ENST00000298875|hu_mus|FALSE|FALSE (ssRNA)
RNA: GGGAGUUCUACAGUCCGACGAUCGGAAUCAAUAAUGUCCACAGAGAAGUGUUCAUCCCAGCCACAGUCCAACAAAAACCUAAACUCAUCAACCUGGAGAAGAUAGCAAAGAGCGGACUCUUCUUGAACCCCAGAGAGGGUGGUCAACAGAGGAUUGAGCAUCA
B2: chr1:85784824:85784825:-_ENSG00000153904_ENST00000284031|hu_hu|motif|central (ssRNA)
RNA: GGGAGUUCUACAGUCCGACGAUCAGUAUCUUUCCUUUUCAAAAAUAACAUUAUGCUAAUGAGAACAUCAAAGAAGUAAUACGGUGCUGCAAGUAAUUUAGGUUUUCACAUCAUCAAUCAUAUAGGGAGUCCAAAGAAGCCAGCCAACAGAGGAUUGAGCAUCA
B3: 247079626_247081600_256_CDS_ENSG00000153207_ENST00000391829|human|control|control (ssRNA)
RNA: GGGAGUUCUACAGUCCGACGAUCUCGCUCUCCUGUUAUAGAGUUUACUACCUCAAGUUGUGGACCACAAGCCAAGCAAGCAAGUCCAUUUUUCCCUGCAGCAAACUUUCCACGAAGCACAGAUUCUAAUGUUAUUUCGUCUUCCAACAGAGGAUUGAGCAUCA
B4: chr6:71561584:71561585:-_ENSMUSG00000053470_ENSMUST00000065509|mus_hu|FALSE|FALSE (ssRNA)
RNA: GGGAGUUCUACAGUCCGACGAUCACAGCUUUCAUUAUCUACUUUUACUGAAGAUUCCUUUAAAUUCUGUGAUCGGCAAGCUAAAGCUGAAGGUUCUACCUUUUUUCCUGAACAGUUAUUAGGGCUAUCACUAUUGACACCUGCCAACAGAGGAUUGAGCAUCA
B5: chr7:54825262:54825263:-_ENSG00000132432_ENST00000352861|hu_hu|hu_hu_hu_mus_False|28_48 (ssRNA)
RNA: GGGAGUUCUACAGUCCGACGAUCCUGCCGGCUGGGCUCCACAAACUGCAUUACCUGAUCCAUGUUUGUUGGAUGGCGGAUUGAGAGUGCCAGGGACCGUAGCUCAGGGAGCUUGCUAGCCCAACGGAACCGGAAGCUGGCAACCAACAGAGGAUUGAGCAUCA
B6: chr14:102547831:102547832:-_ENSG00000080824_ENST00000216281|hu_hu|FALSE|FALSE (ssRNA)
RNA: GGGAGUUCUACAGUCCGACGAUCCAGUGCACGUUACCCCAAUCUGUGAAAAUAAACCAACAUGAAACUCAAAAAGCAUUACUAGCUCUGCUUUAGUGCCUAAGGUAUCACAGCAUCACUUAGUAGACAGAAAUCUUAUCUUCCCAACAGAGGAUUGAGCAUCA
B7: chr8:26933331:26933332:-_ENSMUSG00000031575_ENSMUST00000166078|mus_mus|motif|central (ssRNA)
RNA: GGGAGUUCUACAGUCCGACGAUCCUGGUGGAACUUGGUGCCUUUCUUGCUCCGCCAAGAAUAGCUAAACUUAUCAUAGCCGGAGGGAGCUUGGAGGUUACCUAAGGGCUGGGACCAGCCCAGCCUGGCAGCAGUGUCUGGGGGCAACAGAGGAUUGAGCAUCA
B8: chr5:61651017:61651018:+_ENSG00000068796_ENST00000381103|hu_hu|motif|central (ssRNA)
RNA: GGGAGUUCUACAGUCCGACGAUCCCUAUGUUCAUCAAUAGGAUCUGCUGUUGUUAAUGGUCUAUAAUCCAAACUUCCUCGGAAGUCUCUGAUCAUACACAUAAUUUCAUAAUUUGGGUUUGUAGCAUCAACGUCCUGGGCUCUCAACAGAGGAUUGAGCAUCA
B9: chr7:54825262:54825263:-_ENSG00000132432_ENST00000352861|hu_hu|hu_hu_hu_mus_False|1_98 (ssRNA)
RNA: GGGAGUUCUACAGUCCGACGAUCCUGCCGGCUGGGCACAAACUGCAGCAUUACCUGAUCCAUGUUUGUUGGAUGGCGGAUUGAGAGCGUAGAGACACGUAGCUCAGGAGAGAACCGAGCCCAACGGAACCGGAAGCGGAAUCCCAACAGAGGAUUGAGCAUCA
B10: chr1:60041781:60041782:+_ENSMUSG00000041040_ENSMUST00000036540|mus_hu|mus_mus_mus_hu_False|38_48 (ssRNA)
RNA: GGGAGUUCUACAGUCCGACGAUCAAGUUUACAAUAGUAAAGUAAAUGCAGUAGUGGCAAAUUUUCUUUUAUUUUCCUUCACAAAAGAAAACCUCAGGAUCUCAGUUCUAGUCUUGGACAUAGUGAAAGCUAUAAAUUCUGACUCAACAGAGGAUUGAGCAUCA
B11: 32258711_32258831_4409_3pUTR_ENSMUSG00000024384_ENSMUST00000025243|mouse|control|control (ssRNA)
RNA: GGGAGUUCUACAGUCCGACGAUCAACUCUUAAAAACUUGCUUUACAUGUCAGAACUGUUUUGAAUUCAUUAGAUGCUUUUAUUGUUUUUAGUUAAUGAAAUUAAACAAAGCCAGAGGUAGUUUUUGCCACCACCUAGUCUGUACAACAGAGGAUUGAGCAUCA
B12: chr11:82972979:82972980:-_ENSG00000137500_ENST00000527495|hu_hu|motif|central (ssRNA)
RNA: GGGAGUUCUACAGUCCGACGAUCAGCCACAGCAGGAUGAGCAUUAAUACUACUUCCAGAAUCUAUAAAAUCCCAAUGCGGUUGCCAGGCAAGUAAACACCGAAGCUUUUUUGUAAAUUCUGUAGUUGUUUCCAUAAGUUGCUUCAACAGAGGAUUGAGCAUCA
B13: chr5:23013406:23013407:-_ENSMUSG00000062604_ENSMUST00000088392|mus_mus|FALSE|FALSE (ssRNA)
RNA: GGGAGUUCUACAGUCCGACGAUCUCCAAUGUACUGGGAGAAAUUUGCUAGCUCAGAAUGCUAUAUUUGUAGAAUCUGCUAAGAAUUCAACCAAGGAUGUCGAAGGCAUUCGCCAGCUGAGGCUCGUUUUUCUGGAACCAUCUCCAACAGAGGAUUGAGCAUCA
B14: chr2:115689366:115689367:-_ENSMUSG00000027210_ENSMUST00000074285|mus_hu|FALSE|FALSE (ssRNA)
RNA: GGGAGUUCUACAGUCCGACGAUCCUUUGAAGAAGAGUCCCCCAAAAAUAAUAAUAAGAAUUGGCUUAUGAAGCACGAACUAUAAAGAUCUGUUUGAAACUAAAGGACACAUUUAUGGAGGAACAAAGGCCGGGCAUGAAAACACAACAGAGGAUUGAGCAUCA
B15: 200376840_200376960_2058_3pUTR_ENSG00000162702_ENST00000294740|human|control|control (ssRNA)
RNA: GGGAGUUCUACAGUCCGACGAUCACAUACUUGCUUUAUCAUUUGAAGGUGUUUGGGUGCCUGGGCUCAAAUUUUCUUCUUGAACCAAUUCUGAGUGUUCUCCUGAGGUGUGUAAAUCCACUCGUGGUUCUGCAAUAUUGAAAGCAACAGAGGAUUGAGCAUCA
B16: chr17:60642451:60642452:+_ENSG00000146872_ENST00000343388|hu_hu|FALSE|FALSE (ssRNA)
RNA: GGGAGUUCUACAGUCCGACGAUCUUCCUGUUGCUUGAUAAGAUUCUGAAAAGCAUAACCAUCUGUCCACUGUUCAGUAAAUGAGGCUCCGUGUCGGACAGUAGUAAAGUGGCCCAGUCUCAAGCGGUCUUGCAUGCUCUUAUCCAACAGAGGAUUGAGCAUCA
B17: chr2:38870607:38870608:+_ENSMUSG00000026755_ENSMUST00000090993|perfect_dup|motif|central (ssRNA)
RNA: GGGAGUUCUACAGUCCGACGAUCUAACAGGAUUUUUUUUUAAACAGUCUUUCUUGCUGUAAGAACUCUUAUAAUGGAGCCGGGUCCUCCUACAGCUAAGGCCUUUUCAUGCCACUGGAGUAGCACUGCACUGCUAUUUUCUGUCAACAGAGGAUUGAGCAUCA
B18: chr2:216981417:216981418:+_ENSG00000079246_ENST00000392132|hu_hu|hu_hu_hu_mus_True|38_88 (ssRNA)
RNA: GGGAGUUCUACAGUCCGACGAUCCUGAUACUGGUCCUUGCCAGCAAGGGGAUUGUCAGUGCCAUCUGUGCCAUAGAGGACUAACGCAAUCUCAUCUUUGUUCUCAGAAAAUACCUGUCGUUGGACAAACAUAGUCAUCACUUUCAACAGAGGAUUGAGCAUCA
B19: chr7:97322993:97322994:+_ENSMUSG00000039361_ENSMUST00000049537|mus_mus|FALSE|FALSE (ssRNA)
RNA: GGGAGUUCUACAGUCCGACGAUCUGUUGUAGCCCUGCUUGCAGCUGUGGAAUCUUUGAUUUUCUUUCCUUCCAAGGAAGCUAAAUGUUGUUCUAAAGCAUCAAGAAGACUGCUGGGGGCCUGUGAAAGAUCUGGAAUAUCUCCCAACAGAGGAUUGAGCAUCA
B20: chr7:102939105:102939106:+_ENSG00000105819_ENST00000453466|hu_mus|FALSE|FALSE (ssRNA)
RNA: GGGAGUUCUACAGUCCGACGAUCCCCAACUGUGCACGUUGAGAGCCCAGAGUUUUCAGAAGCUACUCUGAGUCCAUUUUCCAAACAUGUCACUUGUGUCUCGGGGACAUUCAGCACAACCUGUGGGGCAGCCUGUGUGCUUCUCAACAGAGGAUUGAGCAUCA
B21: chr8:54730063:54730064:-_ENSG00000047249_ENST00000359530|hu_mus|FALSE|FALSE (ssRNA)
RNA: GGGAGUUCUACAGUCCGACGAUCUGGCAGGAAGUAUGGCCAGGCAGUGCUCUUGCUUCGUUUCGCAUAGUCAAAGAAAAUGCUGACACGCUGGUGAUUUUCCUGCAGCAUAUCGUCAACCAUGGUUAGUAUGUACUGCACUGUCAACAGAGGAUUGAGCAUCA
B22: chr14:89338683:89338684:+_ENSG00000165533_ENST00000346301|hu_hu|hu_hu_hu_mus_False|78_108 (ssRNA)
RNA: GGGAGUUCUACAGUCCGACGAUCGUGGUUGUUGUUGACCAGGGCCAGCCUGAAGCACUGAUGGGCCAAGUUUGUAUCUCCGAUUCCCACAGCUAUGUGCCCCAGGUUGUACCAGACAUCAGCUGCCUCUUCUUCAUUUUCAGCCAACAGAGGAUUGAGCAUCA

target: T1, UNK ZnF1-3; assay: nsRBNS (natural sequence RNA bind-n-seq); RBNS binding buffer (assumed for nsRBNS): 25 mM Tris pH 7.5, 150 mM KCl, 3 mM MgCl2, 0.01% Triton X-100, 500 ug/ml BSA, 20 U/ml SUPERase-In, 4 C; UNK is unkempt and MSI1 is Musashi-1; names of the RNAs are library labels; protein concentration not given here; high values mean tight binding

**Q.** How did the binding signal turn out when B1 was run?
**A.** Its binding signal is 1.15 enrichment R.

**Q.** B2 was tested. Which binding signal did it give?
**A.** Its binding signal is 2.79 enrichment R.

**Q.** Which binding signal does the source give for B3 here?
**A.** The binding signal was 0.761 enrichment R.

**Q.** Which binding signal does the source give for B4 here?
**A.** The binding signal was 1.22 enrichment R.

**Q.** B5 was tested. Which binding signal did it give?
**A.** The binding signal was 1.36 enrichment R.

**Q.** With B6 as the binder, how does the binding signal read?
**A.** Its binding signal is 1.67 enrichment R.

**Q.** With B7 as the binder, how does the binding signal read?
**A.** Its binding signal is 1.03 enrichment R.

**Q.** For B8, which binding signal is on record?
**A.** Its binding signal is 1.07 enrichment R.

**Q.** Which binding signal does the source give for B9 here?
**A.** The binding signal was 1.09 enrichment R.

**Q.** With B10 as the binder, how does the binding signal read?
**A.** The binding signal was 0.679 enrichment R.

**Q.** B11 was tested. Which binding signal did it give?
**A.** Its binding signal is 0.558 enrichment R.

**Q.** Which binding signal does the source give for B12 here?
**A.** Its binding signal is 2.24 enrichment R.

**Q.** For B13, which binding signal is on record?
**A.** Its binding signal is 1.09 enrichment R.

**Q.** B14 was tested. Which binding signal did it give?
**A.** The binding signal was 2.88 enrichment R.

**Q.** For B15, which binding signal is on record?
**A.** The binding signal was 0.548 enrichment R.

**Q.** B16 was tested. Which binding signal did it give?
**A.** Its binding signal is 0.953 enrichment R.

**Q.** With B17 as the binder, how does the binding signal read?
**A.** Its binding signal is 0.52 enrichment R.

**Q.** Which binding signal does the source give for B18 here?
**A.** The binding signal was 1.18 enrichment R.

**Q.** How did the binding signal turn out when B19 was run?
**A.** The binding signal was 1.13 enrichment R.

**Q.** Which binding signal does the source give for B20 here?
**A.** The binding signal was 0.828 enrichment R.

**Q.** How did the binding signal turn out when B21 was run?
**A.** The binding signal was 0.661 enrichment R.

**Q.** B22 was tested. Which binding signal did it give?
**A.** Its binding signal is 0.586 enrichment R.
